Experimental data reported in patent US20250179143A1, “SYSTEMS AND METHODS FOR CHAPERONE-MEDIATED LIGAND EXCHANGE ON MHC-I AND MHC-RELATED MOLECULES USING CHICKEN TAPBPR” (priority 2022, published 2025).

Molecular target: MR1 C262S loaded with acetyl-6-formylpterin (Ac-6-FP) (UniProt Q95460)
Experiment: SPR; MR1 C262S/Ac-6-FP, 10 to 100 µM, over hTAPBPR^FLQ-biotin on a streptavidin chip; steady-state fit in the inset

## hTAPBPR^FLQ (S104F, K211L, R270Q) (from UniProt Q9BX59 22-405)
  Kd: 48 µM
